Experimental data as given in patent US12371675B2, “Process and microorganism for synthesis of adipic acid from carboxylic acids” (THE GOVERNING COUNCIL OF THE UNIVERSITY OF TORONTO, priority 2015, dated 2025).

Biological target: Mycobacterium abscessus carboxylate reductase MAB_4714c, SEQ ID NO: 36 (Mycobacteroides abscessus, UniProt B1MLD7)
Assay: CAR kinetics, ATP/NADPH dependent carboxylic acid reduction

| SMILES | kcat/Km [M⁻¹ s⁻¹] |
| --- | --- |
| O=C(O)CCCO [4-hydroxybutyric acid] | 70.81 ± 1.96 |
| O=C(O)CCCCC(=O)O [adipic acid] | 89.55 ± 3.07 |
